Measured values taken from ChEMBL document CHEMBL4373683, “Dual-target inhibitors of mycobacterial aminoacyl-tRNA synthetases among N-benzylidene-N'-thiazol-2-yl-hydrazines” (Medchemcomm, 2019).

Tested on: Mycobacterium tuberculosis
Assay: Selectivity ratio of MIC for Mycobacterium tuberculosis H37Rv ATCC 27294 cultured in medium containing 7H9/DPPC/ cholesterol/BSA/Tyloxapol to MIC for Mycobacterium tuberculosis H37Rv ATCC 27294 cultured in medium containing 7H9/glucose/BSA/Tyloxapol incubated for 7 to 14 days by Alamar blue reagent based assay

**Q.** Which Selectivity ratio does the source give for `COc1ccc(/C=N/Nc2nc(-c3ccc(F)cc3)cs2)cc1Br` here?
**A.** >10
